Scores whose standard error is large were omitted. Two further conditions of the source, in which the scores hardly spread, are not listed. Names with del lack the residues named; names with ins carry added residues between the positions named. For some of these results: The data file names ogerin without a concentration.
B1: GPR68, Q15743 (parent)
chain: MGNITADNSSMSCTIDHTIHQTLAPVVYVTVLVVGFPANCLSLYFGYLQIKARNELGVYLCNLTVADLFYICSLPFWLQYVLQHDNWSHGDLSCQVCGILLYENIYISVGFLCCISVDRYLAVAHPFRFHQFRTLKAAVGVSVVIWAKELLTSIYFLMHEEVIEDENQHRVCFEHYPIQAWQRAINYYRFLVGFLFPICLLLASYQGILRAVRRSHGTQKSRKDQIQRLVLSTVVIFLACFLPYHVLLLVRSVWEASCDFAKGVFNAYHFSLLLTSFNCVADPVLYCFVSETTHRDLARLRGACLAFLTCSRTGRAREAYPLGAPEASGKSGAQGEEPELLTKLHPAFQTPNSPGSGGFPTGRLA

What was measured:
[1] = variants of: B1; test: cAMP reporter score (Enrich2 score, wild type = 0); higher = more signal; HEK293T, FACS bins
[2] = variants of: B1; test: surface expression score (Enrich2 score, wild type = 0); higher = more signal; HEK293T, FACS bins

Variant	cAMP reporter score ([1]; pH 5.5)	cAMP reporter score ([1]; pH 6)	cAMP reporter score ([1]; pH 6, modulator: ogerin)	cAMP reporter score ([1]; pH 6.5, modulator: ogerin)	surface expression score [2]
T152G	0.417	2.02	-0.614	-0.334	-0.674
T152H	0.204	–	0.079	-1.37	-0.532
T152I	-0.457	0.439	-0.722	-0.955	0.009
T152L	0.431	–	-0.236	-0.425	1.11
T152M	0.911	0.665	-0.103	-0.671	1.72
T152N	-0.392	-0.992	–	-0.437	–
T152R	-1.72	0.626	–	-1.03	-1.89
T152S	0.436	0.947	-0.246	-0.42	–
T152W	-0.792	-0.757	-2.04	-1.25	1.29
T152Y	-0.406	-1.28	-1.3	–	0.534
T152_I154del	-1.31	-0.814	–	-1.52	-2.96
T152_S153insG	-1.54	-1.1	-1.06	-1.61	-0.123
S153_I154del	-0.897	-1.11	-2.16	-1.17	-1.71
S153_I154insG	-0.413	-0.861	–	-0.427	–
S153_I154insGSG	-1.41	-1.34	-1.33	-1.47	-2.07
I154A	-0.214	-0.586	-1.03	-1.2	-0.494
I154C	0.613	-1.21	-0.289	-0.881	-1.35
I154E	-1.22	-1.36	-0.884	-1.31	-1.92
I154F	0.322	–	-0.02	-0.525	–
I154G	0.417	-0.739	-0.225	-1.65	-0.72
I154H	-0.799	–	-1.04	-0.687	-1.6
I154K	-1.56	–	–	-1.73	-2.46

Variant	cAMP reporter score ([1]; pH 5.5)	cAMP reporter score ([1]; pH 6)	cAMP reporter score ([1]; pH 6, modulator: ogerin)	cAMP reporter score ([1]; pH 6.5, modulator: ogerin)	surface expression score [2]
I154L	0.386	–	0.736	0.034	0.843
I154M	0.517	-0.579	0.069	-0.56	-0.188
I154N	-0.289	-0.685	-0.065	-1.42	-2.25
I154P	-0.698	–	-0.732	-0.442	–
I154Q	-0.849	-1.02	-0.653	-1.25	-1.78
I154R	-1.5	-0.484	-1.13	-1.37	–
I154S	0.7	-0.509	-1.13	-0.426	–
I154T	-0.536	-0.926	-0.197	-0.647	-0.698
I154V	-0.206	–	1.64	–	–
I154W	0.392	0.568	0.095	-0.834	0.51
I154_Y155insG	-1.71	-1.5	-1.89	-1.12	-1.32
Y155_F156del	-1.53	-0.32	-1.09	-0.883	-2.51
Y155_F156insGS	-1.77	-1.78	-1	-1.57	-1.48
F156_L157insG	-0.663	–	-0.948	-0.677	–
F156_M158del	-1.24	–	-1.11	-0.449	-2.77
M158_H159insG	-0.591	-0.834	-1.52	-1.57	-0.158
H159_E160insGS	-1.37	-0.201	-0.843	-1.52	0.651
E161del	0.279	-0.584	1.02	-0.108	1.02
V162_I163insG	-0.507	–	–	-2.04	2.43
D165_E166insGSG	-0.653	-0.718	-0.62	0.131	0.95
E166_N167del	-1.16	-1.14	-1.23	-0.926	1.37
N167_Q168insG	-0.648	0.1	-1.2	-0.512	0.345

Variant	cAMP reporter score ([1]; pH 5.5)	cAMP reporter score ([1]; pH 6)	cAMP reporter score ([1]; pH 6, modulator: ogerin)	cAMP reporter score ([1]; pH 6.5, modulator: ogerin)	surface expression score [2]
H169A	-0.909	–	-0.82	-0.608	-0.086
H169D	-0.482	-0.82	-1.06	-1.27	-0.186
H169E	0.968	-1.85	-0.432	-0.345	1.26
H169F	-0.22	-0.149	-1.02	-0.62	0.656
H169G	-1.28	-0.409	-0.87	-1.3	0.376
H169I	-1.78	-1.64	-2.75	-1.77	-0.563
H169K	0.058	-0.717	0.027	-0.35	1.53
H169L	-1.11	-1	-1.21	-1.12	0.251
H169M	0.508	-0.668	-0.411	-0.428	0.937
H169N	-1.23	-0.812	-1.56	-1.59	-0.614
H169P	-0.674	-0.652	-1.03	-1.15	1.62
H169Q	-0.116	-0.475	-0.56	-0.422	-0.85
H169R	-0.204	-0.302	-0.332	-0.404	0.201
H169S	-0.692	-1.02	-1.42	-0.78	0.84
H169T	-0.422	-0.837	0.41	-0.738	1.64
H169V	-0.498	–	-1.03	-1.41	0.801
H169W	-0.998	-0.497	-1.59	-1.32	0.066
H169Y	-0.824	-0.216	-1.04	-0.688	0.368
H169_R170insGS	-1.44	-1.29	-1.11	-0.832	0.454
H169del	-0.717	-0.675	-2.25	-1.51	0.133
R170_C172del	-1.91	-0.6	-1.25	-1.71	-2.4

Source: the GPR68 mutational scans of Howard et al. (2025)
